For the assay, the target named is T1, biotinylated SARS-CoV-2 spike RBD (Ancestral) (SARS-CoV-2).
T1 construct: domain: RBD
Put plainly: AlphaLISA, inhibition of ACE2-muFc / biotinylated spike complex.

Broadly, the IC50 is the concentration that inhibits the measured activity by half. A higher IC50 goes with a need for much substance.

B1: bispecific monoclonal antibody 493-004 (bispecific antibody)
chain: EVQLVESGGGLVQPGGSLRLSCAASGFTFSPSWMGWFRQAPGKEREFVATINEYGGRNYADSVKGRFTISADNSKNTAYLQMNSLKPEDTAVYYCARVDRDFDYWGQGTLVTVSSGGGGS[no letters for human IgG1 Fc with C220S (EU numbers)]GGGSGGGGSASEVQLVESGGGLVQPGGSLRLSCAASGSTFSINAMGWFRQAPGKEREFVAGITSSGGYTNYADSVKGRFTISADNSKNTAYLQMNSLKPEDTAVYYCAADGVPEYSDYASGPVWGQGTLVTVSS
B1: the IC50 is 10.4 nM.
